# Measurements published in PubChem BioAssay AID1569 (National Center for Advancing Translational Sciences (NCATS), 2009).
# This list was built around the results that the source calls inconclusive (neither active nor inactive); the mix of calls is not that of the screen. Potencies beside an inconclusive call are fits to weak or partial responses and may not hold up. Activity calls are given as the source filed them. The call rests on the fitted dose curve; in most records, active means well fitted inhibition curve with a large enough effect; inconclusive means small, poorly fitted or top-dose-only effect, or effect the other way, or another doubt; inactive means no such curve, though single readings can be large or run the other way.
# Test: Confirmation Concentration-Response Assay for lipid storage modulators; further: nearly all actives have a fitted effect of over 80% in size
# Details: Drosophila S3 cells, lipid droplet BODIPY/CellTracker ratio, 18-24 h
# From the text: NIH Molecular Libraries Probe Production Centers Network [MLPCN] NIH Chemical Genomics Center [NCGC] MLPCN Grant: 1 R03 MH085686-01 Assay Submitter (PI): Beller, Mathias; Max-Planck-Institut fur Biophysikalische Chemie NCGC Assay Overview: Storing lipids as a reservoir for energy or the anabolism of elementary metabolites is a common feature of probably all cells and is conserved from bacteria to humans. The universal cellular lipid storage organelle is the so-called lipid storage droplet (LD). Although ubiquitous, LDs share a simple structure composed of a hydrophobic core that harbors the storage lipids, which is shielded by a droplet-specific phospholipid monolayer to which proteins are attached. The current model of LD biogenesis involves an incorporation of the lipid core into the membrane leaflets of the endoplasmic reticulum (ER) followed by a subsequent budding-like maturation of a LD, which ultimately pinches off. Once released, LD volume can increase by localized lipogenesis or fusion of existing droplets. Storage lipids are re-mobilized enzymatically by lipase activity. Lipase regulation in the adipocyte is heavily studied and involves multiple components including catecholamine signaling, the LD-associated proteins Perilipin and comparative gene identification-58 (CGI-58) and at least two lipases named hormone sensitive lipase (HSL) and adipocyte triglyceride lipase (ATGL). LD regulation outside of the adipocyte is poorly understood and only few components are known. However, there is an urgent need to learn more about ectopic fat depots as mislocalized storage of lipids, for example in the liver or muscle, is an eminent health problem associated with insulin resistance or the metabolic syndrome. We developed a laser-scanning cytometer assay to enable 1,536-well screening and combined the results of the small molecules screen with an RNAi database based on lipid storage. Exo1 identified in the primary screen (AID 1519) and several analogs were measured in the lipid storage assay as 24-point concentration-response curves to confirm potency and SAR.
# We dispensed 4 uL of cells at 1.25 x 10^6 cells/mL into LoBase Aurora COC 1,536-well plates (black walled, clear bottom) with a bottle-valve solenoid-based dispenser (Aurora) to obtain 5,000 cells/well. Triacsin C (Sigma-Aldrich T-4540), an inhibitor of long-chain fatty acyl CoA synthetase that blocks synthesis of triglycerides, was used as a positive control for lipid under-storage. A total of 23 nL of compound solution of different concentrations were transferred to the assay plates using a Kalypsys pin tool equipped with a 1,536-pin array containing 10-nL slotted pins (FP1S10, 0.457-mm diameter, 50.8 mm long; V&P Scientific). One microliter of oleic acid (400 uM) was added, and the plate was lidded with stainless steel rubber gasket lined lids containing pinholes. After 18-24 h incubation at 24 degree Celsius and 95% humidity, 4 uL of the dyes BODIPY 493/503 (Molecular Probes) and the Cell Tracker Red CMTPX dye (Molecular Probes) were added to the wells to stain lipid droplets and enumerate cell number, respectively. Fluorescence was detected by excitation of the fluorophores with a 488-nm laser on an Acumen Explorer (TTP Lab Tech). The total intensity in channel 1 (500-530 nm) reflected lipid droplet accumulation. Cells were detected using channel 3 (575- 640 nm) with 5-um width and 100-um depth filters. The ratio of the total intensity in PMT channel 1 over total intensity of channel 3 was also calculated. Percent activity was computed relative to an internal control (100% inhibited lipid droplet deposition due to the presence of 20 uM Triacsin C), which was added to 32 wells/plate.
# Potency means the concentration at half of the fitted maximal effect; tags describe the fitted curve by direction and shape.
row,SMILES,Potency
1,Nc1c(C(=O)OCc2ccccc2)c2nc3ccccc3nc2n1Cc1cccs1,"inconclusive: 0.112 µM [activator, full curve]"
2,COc1cc2c(cc1OC)[C@@H]1C(=O)c3ccc4c(c3O[C@@H]1CO2)C[C@H](C(C)C)O4,active: 0.0499 µM
3,CCCCCCn1c(N)c(C(=O)NCCN2CCOCC2)c2nc3ccccc3nc21,"inconclusive: 0.25 µM [activator, full curve]"
4,CCS(=O)(=O)Nc1cccc(C(=C2CCCCC2)c2cnc[nH]2)c1,"inconclusive: 28.1 µM [activator, partial curve]"
5,Cc1nc2ccc(Nc3nc4cc(S(=O)(=O)N5CCOCC5)ccc4o3)cc2s1,"inconclusive: 1.41 µM [activator, full curve]"
6,CC(C)=CCOc1c2occc2cc2ccc(=O)oc12,"inconclusive: 2.5 µM [activator, full curve]"
7,O=C(Nc1cccc(Cl)c1)OC1CN2CCC1CC2 (stereo not drawn),active: 8.88 µM
8,CC1=NN=C(c2ccc(N)cc2)c2cc3c(cc2C1)OCO3,"inconclusive: 7.05 µM [activator, partial curve]"
